{"source": "PubChem BioAssay (NCI)", "note": "“And” between values parts separate entries of the source, which are not always exact repeats. Equal values may be shown once.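 Five concentrations, 48 hours, 96-well plates. GI50 = concentration required for 50% inhibition of growth. The concentration for full growth arrest is given as TGI.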", "data": [{"test_system": "NCI-H322M lung", "experiment": "growth of human tumour cells (NCI), 48 h", "units": {"TGI": "µM"}, "values": [{"smiles": "C/C(=N\\NC(=S)N1CCOCC1)c1nc2ncccc2[nH]1", "TGI": "> 100"}, {"smiles": "CC(C)[C@@H]1NC(=O)[C@@H]2N=C(O[C@H]2C)[C@H](C(C)C)NC(=O)C2N=C1O[C@H]2C", "TGI": "> 100"}, {"smiles": "C=CCOC(=O)N1c2ccc(O)cc2[C@@]23O[C@@]24[C@@H]1C#C/C=C\\C#C[C@]3(O)C(=O)C[C@@H]4C", "TGI": "> 100"}, {"smiles": "Cn1c(NC(=O)NC23CC4CC(CC(C4)C2)C3)nc2ccccc21", "TGI": "> 100"}, {"smiles": "COc1ccc(CC[N+]2(C)COc3cc4oc(=O)cc(C)c4cc3C2)cc1OC", "note": "(centres undefined)", "TGI": "> 100"}, {"smiles": "C=CCNC1=C2C[C@@H](C)C[C@@H](OC)[C@H](OC(=O)CCN(C)C)[C@H](C)/C=C(\\C)[C@@H](OC(N)=O)[C@H](OC)/C=C\\C=C(/C)C(=O)NC(=CC1=O)C2=O", "TGI": 21.5}, {"smiles": "O=C(O)C1(C(O)c2ccccc2)SCCCS1", "note": "(centres undefined)", "TGI": "> 10"}, {"smiles": "Cc1nc2c(Br)cc(Br)cc2c(=O)n1-c1ccccc1NC1OCC(O)C(O)C1O", "note": "(centres undefined)", "GI50": "98.9 µM and 38.9 µM", "TGI": "> 100"}, {"smiles": "Cc1cc(=O)n2nc(CSc3nnc(Sc4cc(O)ccc4O)s3)sc2n1", "TGI": "> 100"}, {"smiles": "CCc1cc2c(c3c1CCCC3=O)CC1(C2)Cc2cc(CC)c3c(c2C1)C(=O)CCC3", "TGI": "> 100"}, {"smiles": "COc1ccc2c(c1)[n+](=O)c(C(C)=O)c(C)n2[O-]", "TGI": "> 100"}, {"smiles": "CNCc1ccc(-c2[nH]c3cc(F)cc4c3c2CCNC4=O)cc1", "GI50": "25.2 µM", "TGI": "> 87.6"}, {"smiles": "CC(C)(CN1CCCCC1)C(=O)CC(SCCS(=O)(=O)O)c1ccc(Cl)cc1", "note": "(centres undefined)", "TGI": 21.1}, {"smiles": "COc1cc2c(cc1OCCCOc1ccc(-c3cc4ccccc4c4ccccc34)cc1)N=C[C@@H]1CCCN1C2=O", "GI50": "1.42 µM", "TGI": 2.95}, {"smiles": "CC(=O)OCC1OC(n2c(=S)n(-c3ccccc3)c(=O)c3cc(Br)cc(Br)c32)C(OC(C)=O)C(OC(C)=O)C1OC(C)=O", "note": "(centres undefined)", "TGI": "> 100"}, {"smiles": "COC(=O)C(NC(=O)c1ccccc1)C(c1c(O)cc(O)cc1O)P(=O)(OC)OC", "note": "(centres undefined)", "TGI": "> 100"}, {"smiles": "c1cc2c(cc1[C@@H]1OC[C@@H]3[C@H]1CO[C@H]3c1ccc3c(c1)OCO3)OCO2", "TGI": "> 100"}, {"smiles": "O=C(/C(=C/c1ccc(O)cc1)c1ccccc1)c1ccccc1", "TGI": 34.7}, {"smiles": "CC(CC=O)Nc1nn2c(=O)c3ccccc3nc2s1", "note": "(centres undefined)", "TGI": "> 100"}, {"smiles": "COc1c(O)c2c3c(c1OC)-c1ccccc1CC3N(S(=O)(=O)c1ccc(C)cc1)CC2", "note": "(centres undefined)", "GI50": "2.73 µM", "TGI": "> 50"}, {"smiles": "CCCCCCCCCCCCCCC(C)CCC(=O)O", "note": "(centres undefined)", "TGI": "> 100"}, {"smiles": "Cc1nc(Cc2n[nH]c(C)n2)n[nH]1", "TGI": "> 100"}, {"smiles": "CC[C@]1(Cc2ccc(OC)c(OC)c2)C=[N+]([O-])O[C@H](OC2CCCC2(c2ccccc2)c2ccccc2)[C@@H]1OC(=O)C(C)(C)C", "note": "(some centres undefined)", "TGI": 17}, {"smiles": "COc1ccc(C23OCC(Cc4cc(OC)c(OC)cc42)C3CO)cc1OC", "note": "(centres undefined)", "TGI": "> 100"}, {"smiles": "COc1cc2cc3c(c(O)c2c(O)c1-c1c(OC)cc2cc4c(c(O)c2c1O)C(=O)O[C@H](C)C4)C(=O)O[C@H](C)C3", "GI50": "17.9 µM", "TGI": 54.7}, {"smiles": "c1ccc2c3c([nH]c2c1)C1C2CCCCN2C(c2ccncc2)N1CC3", "note": "(centres undefined)", "TGI": "> 100"}, {"smiles": "Cn1c(=O)c2c(nc(N/N=C3/SCC(=O)N3Cc3ccccc3)n2C)n(C)c1=O", "TGI": "> 100"}, {"smiles": "CC(NNC(=O)c1ccncc1)c1ccc(Cl)cc1Cl", "note": "(centres undefined)", "TGI": "> 100"}, {"smiles": "NC(N)=N/N=C(/c1ccccc1)c1ccccc1F", "GI50": "9.71 µM", "TGI": "> 58.8"}, {"smiles": "O=c1[nH]c2ccc([N+](=O)[O-])c(Cl)c2c2ccccc12", "TGI": 21.3}, {"smiles": "COc1cc(/C=C\\c2cc(OC)c(OC)c(OC)c2)cc(NS(=O)(=O)c2ccc(Cl)cc2)c1OC", "GI50": "0.759 µM", "TGI": "> 100"}, {"smiles": "Clc1ccc(C2=NCON=C2c2ccc(Cl)cc2)cc1", "TGI": 44.8}, {"smiles": "Cc1ccc2nc(C(=O)O)c(=O)[nH]c2c1", "TGI": "> 100"}, {"smiles": "NC(N)=NCCCC(NC(=O)c1c2ccccc2nc2ccccc12)C(=O)O", "note": "(centres undefined)", "TGI": "> 100"}, {"smiles": "CN(C)c1ccc(N=C2C=CC(=C(C#N)C#N)c3ccccc32)cc1", "TGI": 8.45}, {"smiles": "CN(C)c1ccc(C2CC(C)(O)Oc3cc4c(cc32)OCO4)cc1", "note": "(centres undefined)", "TGI": "> 100"}, {"smiles": "O=C1c2ccccc2C(=O)c2sc(Nc3cc(Cl)ccc3Cl)nc21", "TGI": 29.8}, {"smiles": "CCOC(=O)C1C(c2ccc(OC)cc2)c2c([nH]n(-c3ccccc3)c2=O)CC1(C)O", "note": "(centres undefined)", "TGI": "> 100"}, {"smiles": "Cc1ccc(NC(=O)C(=O)Cc2cccc[n+]2[O-])cc1C", "TGI": "> 100"}, {"smiles": "CC(C)=CC(=O)c1c(C(=O)O)nc2ccccc2[n+]1[O-]", "TGI": "> 100"}, {"smiles": "CCCCCCCCCCCCOC1C(C(CC(=O)N2CCN(Cc3ccc4c(c3)OCO4)CC2)NS(=O)(=O)c2cc(Cl)cc(Cl)c2)OC2OC(C)(C)OC21", "note": "(centres undefined)", "GI50": "> 100 µM", "TGI": "> 100"}, {"smiles": "CCOC(=O)c1c(-c2ccccc2)c(C)cn1C", "TGI": "> 10"}, {"smiles": "CCN(CC)CCNc1ccc([N+](=O)[O-])c2sc3cc(Cl)ccc3c(=O)c12", "GI50": "5.64 µM", "TGI": 35.5}, {"smiles": "COc1cccc(C2C(C#N)=C(N)Oc3cc4c(cc32)OCO4)c1", "note": "(centres undefined)", "GI50": "5.05 µM", "TGI": "> 100"}, {"smiles": "CC1=C2[C@@H](CC1)[C@]1(C)O[C@@](C3CC3)(C[C@H]1OC(=O)CO)[C@H]2OC(=O)/C=C/c1ccccc1", "GI50": "16.7 µM", "TGI": 33.4}, {"smiles": "c1ccc(-c2c(-c3[nH]c4ccccc4c3-c3ccccc3)[nH]c3ccccc23)cc1", "TGI": 15.9}, {"smiles": "C=CCN1C(=O)CC(=O)N(NC2=NNC3(C(=O)N2)c2ccccc2-c2ccccc23)C1=S", "TGI": "> 100"}, {"smiles": "C=CCN=C(N/N=C/c1ccc([N+](=O)[O-])o1)NS(=O)(=O)c1cc(C(=O)Nc2ccccc2)c(Cl)cc1SCC(N)=O", "GI50": "16.3 µM", "TGI": 57.1}, {"smiles": "COc1ccc(OCC(O)CN2CCN(c3ccc(Cl)cc3)CC2)cc1", "note": "(centres undefined)", "GI50": "> 100 µM", "TGI": "> 100"}, {"smiles": "COC(=O)[C@@H]1COC(=O)N1", "TGI": "> 100"}, {"smiles": "Cc1cc(C)nc(NS(=O)(=O)c2ccc(Nc3c4ccccc4nc4ccc(C(=O)Nc5ccc(S(=O)(=O)N=C(N)N)cc5)cc34)cc2)n1", "TGI": "> 100"}]}]}
